Measurements as given in patent US20230272055A1, “ANTI-MUTANT CALRETICULIN (CALR) ANTIBODIES AND USES THEREOF” (Incyte Corporation, priority 2021, published 2023).

Test system: WT BaF3 cells or Ba/F3-TPOR/mutCALR type 1
Assay: Cell cycle profile (BrdU/7-AAD flow cytometry)
Assay type: cell-based
Conditions: 24 hours, FIG. 20
Description: Engineered BaF3 cells (10,000 cells/well) were added to a 12-well plate containing 2.0 mL culture media with serially diluted antibodies. The treatment period was for 24 hours. After 22 hours of incubation, Ba/F3 cells were pulse-labeled with BrdU for 2 hours. After 24 hours, Ba/F3 cells were collected, washed with PBS and incubated with BD Cytofix/Cytoperm buffer for 20 minutes on ice. Cells were then washed with the BD Perm/Wash buffer and the cell pellets were resuspended in 100 μL of BD Cytoperm and Permeabilization buffer and incubated on ice for 10 minutes. Cells were then washed and resuspended in 100 μl of BD Cytofix/Cytoperm buffer and incubated at room temperature for 5 minutes. Cells were washed and treated with 100 μL of 300 μg/mL solution of DNase, and incubated for 1 hour at room temperature, and were then washed and resuspended in 50 μl of BD Perm/Wash buffer containing anti-BrdU-APC antibody for 20 minutes in the dark at room temperature. After additional washing, cells were resuspended in PBS containing 2% FBS and 7-AAD and analyzed for cell cycle profiles on the LSRFortessa™ X-20 analyzer (BD Biosciences). Clone 74 was screened to determine its effect on the cell cycle using WT BaF3 cells or Ba/F3-TPOR/mutCALR type 1.

B1: 74 (antibody)
heavy: EVQLVQSGAEVKKPGASVKVSCKVSGYTLTELSMQWVRQAPGKGLEWMGGFDPDDAETMYAEKFQGRLTVTEDTSTDTVYMELSSLRSEDTAVYFCATSPGYDFFDYWGQGTLVTVSSASTKGPSVFPLAPSSKSTSGGTAALGCLVKDYFPEPVTVSWNSGALTSGVHTFPAVLQSSGLYSLSSVVTVPSSSLGTQTYICNVNHKPSNTKVDKRV[omitted - human IgG1 Fc with changes]
light: SYVLTQPPSVSVAPGKTARITCTGTSSDVGGYNYVSWYQQKPGQAPVLVVYEVSNRPSGIPERFSGSNSGNTATLTISRVEAGDEADYYCQVWDSSNDLLIFGGGTKLTVLGQPKAAPSVTLFPPSSEELQANKATLVCLISDFYPGAVTVAWKADSSPVKAGVETTTPSKQSNNKYAASSYLSLTPEQWKSHRSYSCQVTHEGSTVEKTVAPTECS
- induction of apoptosis (BaF3 cells carrying mutCALR, dose-dependent): selectively induced apoptosis
- cell cycle profiles (WT BaF3 cells): did not impact cell cycle profiles
